# Some of the results follow. Values were computed here from the reads of four pooled replicates and scatter widely.
# Target: T1, Pho4 (S. cerevisiae) (UniProt P07270)
# T1 sequence: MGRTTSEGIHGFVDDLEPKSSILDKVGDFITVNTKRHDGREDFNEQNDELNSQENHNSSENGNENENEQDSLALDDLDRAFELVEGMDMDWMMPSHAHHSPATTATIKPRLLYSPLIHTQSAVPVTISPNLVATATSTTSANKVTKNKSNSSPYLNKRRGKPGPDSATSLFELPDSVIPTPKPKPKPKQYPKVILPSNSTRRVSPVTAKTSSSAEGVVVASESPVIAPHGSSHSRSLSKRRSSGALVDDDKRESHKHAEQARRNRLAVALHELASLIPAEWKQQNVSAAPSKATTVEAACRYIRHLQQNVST
# Test: relative binding free energy (BET-seq); higher = weaker binding
# Conditions: reference: library average
row,Sequence,relative binding free energy [kcal/mol]
1,GGGGTCACGTGACGGT,0.32
2,TTATGCACGTGCGCGT,-0.26
3,CTTGACACGTGAGGAG,0.35
4,CGTTTCACGTGGATTA,0.2
5,TTGGGCACGTGGTTAG,-0.15
6,GGTGGCACGTGATGCA,-0.01
7,GGGGGCACGTGGTAGA,-0.1
8,GATTTCACGTGTGTTT,0.26
9,TTGCGCACGTGTAAGG,-0.02
10,TATTCCACGTGGCGGG,0.12
11,TATGGCACGTGTCCGG,0
12,TGAGACACGTGTCGTT,0.17
13,TGTCGCACGTGGTAAA,-0.05
14,TGGTGCACGTGGCGTG,-0.11
15,AGATTCACGTGTGGGC,0.3
16,AGGGGCACGTGGTTGG,-0.13
17,GTTTGCACGTGAATTC,0.31
18,TTATACACGTGGGTTC,-0.1
19,TATCGCACGTGTTTAA,-0.04
20,GAACGCACGTGAGGGT,0.24
21,GTGTTCACGTGGATTT,0.27
22,AGAGTCACGTGATAGA,0.29
23,GTGTGCACGTGGGTGT,-0.18

row,Sequence,relative binding free energy [kcal/mol]
1,GTCCGCACGTGGTAGG,-0.08
2,GACTTCACGTGGAGGT,0.31
3,TGTAGCACGTGGATGT,-0.11
4,CATAGCACGTGAGGGC,0.24
5,ATCGTCACGTGTTGGG,0.12
6,CGGGTCACGTGGCGTA,-0.02
7,ACGTTCACGTGGAGTG,0.15
8,GGGGCCACGTGTGGGA,0.06
9,TGGGTCACGTGAAGCT,0.28
10,AAACACACGTGGGGGT,-0.07
11,GAGTGCACGTGAATGA,0.47
12,TTGTTCACGTGATTAC,0.4
13,GCGGGCACGTGATTGT,0.08
14,TTTAGCACGTGTTTAT,-0.07
15,GGCGCCACGTGGTGGT,-0.1
16,GTGTCCACGTGGCTTG,0.01
17,TAGGTCACGTGTAGGA,0.05
18,ATTGTCACGTGATAGA,0.21
19,TTTGGCACGTGAGTTG,0.22
20,AATATCACGTGAGGTT,0.41
21,CTTAACACGTGTGAGT,-0.01
22,TTTCCCACGTGTGTGT,0.01
23,AATATCACGTGATAGG,0.19

row,Sequence,relative binding free energy [kcal/mol]
1,ATAAACACGTGTTTGT,-0.09
2,GCGGGCACGTGGAGCT,-0.12
3,GTAATCACGTGATTTA,0.19
4,GCGAGCACGTGGGGGG,-0.18
5,TATAGCACGTGGATGG,-0.08
6,GTCAGCACGTGTGTGG,0.06
7,GAATGCACGTGTAATG,0.21
8,TATGTCACGTGACGAT,0.18
9,ACTATCACGTGGTGTG,-0.03
10,GTATTCACGTGGTGTC,0.33
11,TTTTGCACGTGATATT,0.1
12,TGGAACACGTGCGGGG,0.06
13,AATTTCACGTGTTGCG,0.23
14,GGGGTCACGTGTCGCT,0.09
15,TAAAGCACGTGAGTAT,0.23
16,GGGACCACGTGATGTA,0.15
17,CTGTGCACGTGTGAGG,0.07
18,TGGCTCACGTGTTGAG,0.28
19,CCAGGCACGTGTGTTT,-0.01
20,GATTACACGTGGATTT,0.18
21,GATATCACGTGTGTGC,0.19
22,GGATGCACGTGCGGTG,-0.04
23,AGTATCACGTGTAGGT,0.15

row,Sequence,relative binding free energy [kcal/mol]
1,GGCAGCACGTGATTAT,0.33
2,ATTCGCACGTGTTTGA,-0.18
3,TGTGCCACGTGTACGG,-0.08
4,TGACGCACGTGTTGTG,-0.15
5,CAGTGCACGTGGTAGT,-0.18
6,TAATACACGTGTTGGT,0.16
7,AATTCCACGTGATGTG,0.14
8,TTCAGCACGTGGGGGT,-0.25
9,GGACTCACGTGTCGTG,0.21
10,TGTAACACGTGTTACG,-0.02
11,CGGGACACGTGGTCTG,-0.08
12,CAGTTCACGTGCTGTT,0.23
13,ATTAGCACGTGGCTTT,-0.17
14,TATAACACGTGTATTA,0.05
15,AAAGTCACGTGGGAGC,0.19
16,AGAATCACGTGGATGG,0.26
17,TCTTGCACGTGGGGGA,-0.06
18,GGGATCACGTGAGCAG,0.41
19,GAATGCACGTGTTGTT,0.05
20,TTTATCACGTGAATAG,0.34
21,TGTTGCACGTGCGAGG,0.02
22,AGGGGCACGTGAGATC,0.12
23,GGTCTCACGTGTGAAG,0.38

row,Sequence,relative binding free energy [kcal/mol]
1,GTTGCCACGTGCGGTT,-0.14
2,GGCACCACGTGTGGGG,-0.02
3,GGTAACACGTGGTTGT,0.04
4,TAAATCACGTGAAGTT,0.49
5,CGTATCACGTGATTAG,0.38
6,GGGGTCACGTGGACAT,0.15
7,AGCATCACGTGTTTAT,0.17
8,TGTTTCACGTGGATGT,0.27
9,TGAGTCACGTGGCTTG,0.07
10,GGAAGCACGTGGGATG,-0.12
11,AGATACACGTGTGGGT,0.01
12,GTAGTCACGTGTTGAC,0.26
13,TGTCCCACGTGGTAGT,-0.12
14,ATTTTCACGTGATAGG,0.23
15,TTGTTCACGTGGTACA,0.07
16,TGAGTCACGTGTCTTA,0.14
17,GGCGACACGTGTAGTT,0.21
18,GTGGTCACGTGTTGGA,0.17
19,ATTGTCACGTGATTTT,0.33
20,AAGAACACGTGGATGG,0.07
21,AGGGGCACGTGGGACT,-0.23
22,TTTATCACGTGGTAGC,0.03
23,AGTATCACGTGTGCGA,0.04
